Test results taken from PMC10320511.
These are yes or no findings as the source states them, for the method shown. In cells and extracts the contact can be indirect. Some binding calls cover weakened binding; strength is not graded here. For part of these data: Tags and fused reporters may be left off the sequences shown.

Sequences of proteins named here, by UniProt entry; tags and fusion partners are left off.
UniProt Q01371: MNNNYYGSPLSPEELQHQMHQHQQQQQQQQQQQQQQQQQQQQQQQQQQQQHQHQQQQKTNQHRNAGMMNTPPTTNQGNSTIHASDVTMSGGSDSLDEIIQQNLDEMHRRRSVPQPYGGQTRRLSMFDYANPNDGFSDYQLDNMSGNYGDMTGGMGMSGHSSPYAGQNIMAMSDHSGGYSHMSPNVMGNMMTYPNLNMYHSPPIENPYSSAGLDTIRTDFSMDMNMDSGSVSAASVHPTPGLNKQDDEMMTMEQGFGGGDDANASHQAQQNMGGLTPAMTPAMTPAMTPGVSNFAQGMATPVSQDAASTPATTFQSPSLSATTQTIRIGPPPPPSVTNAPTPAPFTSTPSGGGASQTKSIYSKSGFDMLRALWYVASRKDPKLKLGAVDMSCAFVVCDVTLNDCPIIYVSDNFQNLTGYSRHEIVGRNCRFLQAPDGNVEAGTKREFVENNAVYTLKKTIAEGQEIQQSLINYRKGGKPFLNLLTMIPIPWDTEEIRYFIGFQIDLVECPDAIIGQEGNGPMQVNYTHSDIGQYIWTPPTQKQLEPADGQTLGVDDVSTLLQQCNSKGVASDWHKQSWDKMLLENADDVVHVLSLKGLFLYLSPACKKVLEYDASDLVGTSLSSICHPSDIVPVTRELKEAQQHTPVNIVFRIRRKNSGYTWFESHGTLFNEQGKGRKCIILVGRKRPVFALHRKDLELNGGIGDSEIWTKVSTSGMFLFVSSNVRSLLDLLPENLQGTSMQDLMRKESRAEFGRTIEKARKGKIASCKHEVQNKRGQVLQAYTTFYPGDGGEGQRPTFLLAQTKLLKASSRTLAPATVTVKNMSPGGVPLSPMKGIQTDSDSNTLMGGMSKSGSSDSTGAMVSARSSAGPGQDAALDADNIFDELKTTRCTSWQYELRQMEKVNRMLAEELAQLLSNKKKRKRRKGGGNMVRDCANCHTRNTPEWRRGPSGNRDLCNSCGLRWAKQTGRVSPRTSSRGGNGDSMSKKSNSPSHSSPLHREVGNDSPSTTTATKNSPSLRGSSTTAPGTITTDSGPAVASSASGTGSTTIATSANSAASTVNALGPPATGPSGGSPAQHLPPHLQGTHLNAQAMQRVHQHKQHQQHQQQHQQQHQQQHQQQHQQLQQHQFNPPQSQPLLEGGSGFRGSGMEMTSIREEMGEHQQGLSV

B1: White Collar-2 (WC-2) (protein, UniProt P78714 1-530)
chain: MSHGQPPPGSSMYGFGAMGMGSGMGSGMGSGMGTGMGTGMGTGMSASQMTSDPQDMMSLLDTSVFPGFDGMSMSLDVGDSMSNPFTPVSVPPPLPAGNAGPSHVGVCGGHGAPDQLFSPDDLIATSMSSAGPMIATPTTTTSGPSGGPSSGGGSTLTEFTKRRNWPAKVVEELQDWEHILDANGRIKHVSPSVEPLTGYKPPEIIDLFLRDLIHPDDVGVFTAELNEAIATGSQLRLFYRFRKKDGNWTIFETVGHAHIAAAKFAPNPQNQSPFCQAVFMMARPYPTKNAGLLDSFLEHKIENERLKRRIAELRREEQEEQEESHRTWRMSQEGRSDVTPSDDTATQMGMTPFYIPMNAQADVMMPPPSQPASSLNIALTRENLEGIAGSRPDSIREKMLRYEGNHADTIEMLTGLKYQEGERSHGITTGNASPTLIKGDAGIAIPLDRDPRTGEKKKKIKVAEEYVCTDCGTLDSPEWRKGPSGPKTLCNACGLRWAKKEKKKNANNNNNGGGIGGHNDIHTPMGDHMG
B2: FRQ-interacting RNA helicase (FRH) (protein, UniProt Q1K502 1-1106)
chain: MDDLFEVFEEQPRAQKKRKASPDVEMADGAAAAAPVANAAAAVTHPQAQAAPAPQKDNIDNNDNNNNNTTTSAVQPTIPNGDAAAAADDVQSPQSPHGLGDNKRRKKTDEAEPIMTDAFQTAESREVTGAQGFAPTEGESIVLSHNIQHQVALPPDLDYEYIPLSEHKPPAEPARTYSFKLDPFQALSVASIEREESVLVSAHTSAGKTVVAEYAIAQCLKKNQRVIYTSPIKALSNQKYRDFQAEFGDVGLMTGDVTINPTASCLVMTTEILRSMLYRGSEIMREVAWVVFDEIHYMRDKIRGVVWEETIILLPDKVRYVFLSATIPNAFQFAEWIAKIHRQACHVVYTDFRPTPLQNYFFPAGGKGILLIVDEKGNFKENNFNQAMAMIEEKKGTDSNDWSAKQKGKGKNKKTNKGGEAADEKADIAKIIKMILKKNFQPVIVFNFSKRECEQMALASSSMKFNAPDEENMVNKVFENALASLSEDDKNLPQISNILPLLRKGIGVHHSGLLPILKETIEILFQEGLIKVLFATETFSIGLNMPARTVVFTQVTKWDGQQRRPLTSSEYIQMAGRAGRRGLDDRGIVIMMVDDKLEPETARAIVVGNQDKLNSAFHLGYNMVLNLLRIEAISPEYMLERCFFQFQNAASVPQLERELISLQQERDAIIIPDESIVKDYYGVRQQLEEYNKDMVFVIQHPQNCLGFFQEGRLIHIKSPSGVDYGWGVLIKHIQRQTPKNGQPPYPEQESYVLDVLLKVSGDFNPKTRGEGPMPEGIMPAGKDSKNARWEVVPCLLNCLRALGQLRVFLPKRLESADEKDGVGKAVDEISRRFPDGIPILDPMENMGINDDSFKKLLRKIEVLESRLVANPLHNSPLLVELWNQYSLKMQLGEQIKEKKKAIARAHSVAQLDELKSRKRVLRRLGFINDAEVVQMKARVACEISSTEGHELLLAELLFNRFFNELSPEICACILSCFIFDEKIETQALKEELAKPFREIQAQARIIAKVSAESKLDVNEDEYVQSLKWQLMETVLAWAQGRPFSEICKMTNVYEGSLIRLFRRLEELLRQMAEAARVMGSEELKDKFELSLSKIRRDIVSFNSLYL

What was measured:
[1] = molecular target: T1, FREQUENCY (FRQ), wild type, tagged with V5H6 (Neurospora crassa) (UniProt P19970); assay: co-IP; FRQ^V5H6 pulled down with V5 resin from Neurospora lysate; NaCl in lysis and wash buffers raised to 500 or 1000 mM; Western blot
T1 sequence: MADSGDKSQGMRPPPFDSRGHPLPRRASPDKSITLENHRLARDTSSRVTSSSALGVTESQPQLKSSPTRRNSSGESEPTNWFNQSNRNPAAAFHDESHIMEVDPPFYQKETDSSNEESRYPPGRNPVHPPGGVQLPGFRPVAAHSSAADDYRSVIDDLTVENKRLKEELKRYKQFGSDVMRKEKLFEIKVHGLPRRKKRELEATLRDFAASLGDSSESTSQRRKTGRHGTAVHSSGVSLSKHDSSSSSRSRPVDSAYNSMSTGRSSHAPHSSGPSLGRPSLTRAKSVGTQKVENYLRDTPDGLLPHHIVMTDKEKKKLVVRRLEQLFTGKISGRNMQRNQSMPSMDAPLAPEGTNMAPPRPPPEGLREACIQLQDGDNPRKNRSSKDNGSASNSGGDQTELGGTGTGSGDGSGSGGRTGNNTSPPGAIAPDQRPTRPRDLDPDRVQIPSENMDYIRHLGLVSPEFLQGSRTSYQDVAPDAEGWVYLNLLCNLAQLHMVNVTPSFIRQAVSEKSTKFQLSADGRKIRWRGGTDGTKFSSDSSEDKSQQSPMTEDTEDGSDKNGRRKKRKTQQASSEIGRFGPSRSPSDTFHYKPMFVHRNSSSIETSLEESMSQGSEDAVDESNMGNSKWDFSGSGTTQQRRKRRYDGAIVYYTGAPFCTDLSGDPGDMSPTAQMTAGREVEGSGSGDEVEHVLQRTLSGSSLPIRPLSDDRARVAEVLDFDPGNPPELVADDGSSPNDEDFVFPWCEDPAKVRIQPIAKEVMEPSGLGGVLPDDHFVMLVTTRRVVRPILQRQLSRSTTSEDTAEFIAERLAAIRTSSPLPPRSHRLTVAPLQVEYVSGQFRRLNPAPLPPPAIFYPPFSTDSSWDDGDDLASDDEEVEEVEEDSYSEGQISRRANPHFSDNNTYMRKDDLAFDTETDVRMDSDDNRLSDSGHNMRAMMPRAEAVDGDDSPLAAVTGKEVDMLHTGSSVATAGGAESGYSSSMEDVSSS

[2] = molecular target: T2, FRQ Δ733–774, V5H6-tagged (Neurospora crassa) (UniProt P19970); assay: co-IP; V5H6-tagged FRQ (wild type or mutant) pulled down with V5 agarose from Neurospora lysate (cultures in the light, 25 °C); 50 mM Hepes pH 7.4, 137 mM NaCl, 10% glycerol, 0.4% NP-40; 4 °C, 2 h; Western blot with FRQ, FRH, WC-1 and WC-2 antibodies
T2 sequence: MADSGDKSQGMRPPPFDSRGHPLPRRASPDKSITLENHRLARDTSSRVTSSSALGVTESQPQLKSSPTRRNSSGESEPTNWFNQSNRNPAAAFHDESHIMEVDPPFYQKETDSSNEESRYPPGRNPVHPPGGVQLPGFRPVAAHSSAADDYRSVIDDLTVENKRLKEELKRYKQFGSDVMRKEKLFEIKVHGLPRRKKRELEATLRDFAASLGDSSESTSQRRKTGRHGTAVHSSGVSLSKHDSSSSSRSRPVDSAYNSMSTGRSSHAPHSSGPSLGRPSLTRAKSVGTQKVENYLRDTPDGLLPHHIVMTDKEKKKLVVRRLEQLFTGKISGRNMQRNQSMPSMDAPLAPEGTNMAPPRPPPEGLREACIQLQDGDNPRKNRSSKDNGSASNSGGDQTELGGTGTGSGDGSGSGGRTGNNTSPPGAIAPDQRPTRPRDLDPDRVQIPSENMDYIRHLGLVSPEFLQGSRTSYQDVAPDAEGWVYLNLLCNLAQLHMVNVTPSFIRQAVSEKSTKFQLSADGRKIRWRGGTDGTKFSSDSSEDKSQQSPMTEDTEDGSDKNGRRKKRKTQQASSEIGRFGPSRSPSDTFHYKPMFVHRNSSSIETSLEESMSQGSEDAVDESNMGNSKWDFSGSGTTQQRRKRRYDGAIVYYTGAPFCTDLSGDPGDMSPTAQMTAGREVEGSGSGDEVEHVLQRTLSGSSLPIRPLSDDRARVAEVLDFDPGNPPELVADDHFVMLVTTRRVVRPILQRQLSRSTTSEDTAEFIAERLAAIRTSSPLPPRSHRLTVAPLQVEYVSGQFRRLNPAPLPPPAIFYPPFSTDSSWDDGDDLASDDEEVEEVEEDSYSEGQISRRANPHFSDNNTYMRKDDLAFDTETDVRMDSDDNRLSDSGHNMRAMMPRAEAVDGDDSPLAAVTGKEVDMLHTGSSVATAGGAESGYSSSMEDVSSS

[3] = molecular target: T3, FRQ 559–989, V5H6-tagged (Neurospora crassa) (UniProt P19970); assay: as above
T3 sequence: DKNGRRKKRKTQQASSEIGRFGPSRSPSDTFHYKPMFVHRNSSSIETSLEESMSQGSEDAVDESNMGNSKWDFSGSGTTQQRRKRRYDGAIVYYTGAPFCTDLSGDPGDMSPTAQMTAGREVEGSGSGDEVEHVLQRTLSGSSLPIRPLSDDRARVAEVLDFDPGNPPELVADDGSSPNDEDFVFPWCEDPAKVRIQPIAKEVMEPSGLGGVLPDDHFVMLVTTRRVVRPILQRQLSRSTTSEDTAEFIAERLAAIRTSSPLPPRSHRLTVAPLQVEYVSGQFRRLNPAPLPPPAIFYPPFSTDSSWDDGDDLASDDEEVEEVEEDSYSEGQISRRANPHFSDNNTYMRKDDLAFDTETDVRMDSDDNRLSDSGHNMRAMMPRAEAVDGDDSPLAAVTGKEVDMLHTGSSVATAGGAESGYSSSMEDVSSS

[4] = molecular target: White Collar-1 tagged with V5 (WC-1^V5) (Neurospora crassa) (UniProt Q01371); assay: co-IP; WC-1^V5 pulled down with V5 resin from Neurospora lysate; NaCl in lysis and wash buffers raised to 500 or 1000 mM; Western blot

Molecule | binding [1] | binding [2] | binding [3] | binding [4]
White Collar-1 (WC-1) (from UniProt Q01371 1-1167) | no binding (condition: with 500 mM or 1000 mM NaCl) |  |  | 
B1 | no binding (condition: with 500 mM or 1000 mM NaCl) | no binding | no binding | binds
B2 | binds | no binding | binds | no binding (condition: with 500 mM or 1000 mM NaCl)
